# Reference: the supplement of paper PMC3334620
# The full ranking holds about 33,000 sequences; the median of “E-score (-0.5 to 0.5)” is about -0.041, and the highest 2% start at about 0.37. Some of the results follow.
# Target: T1, Ecm22 (UniProt Q05958)
# T1 sequence: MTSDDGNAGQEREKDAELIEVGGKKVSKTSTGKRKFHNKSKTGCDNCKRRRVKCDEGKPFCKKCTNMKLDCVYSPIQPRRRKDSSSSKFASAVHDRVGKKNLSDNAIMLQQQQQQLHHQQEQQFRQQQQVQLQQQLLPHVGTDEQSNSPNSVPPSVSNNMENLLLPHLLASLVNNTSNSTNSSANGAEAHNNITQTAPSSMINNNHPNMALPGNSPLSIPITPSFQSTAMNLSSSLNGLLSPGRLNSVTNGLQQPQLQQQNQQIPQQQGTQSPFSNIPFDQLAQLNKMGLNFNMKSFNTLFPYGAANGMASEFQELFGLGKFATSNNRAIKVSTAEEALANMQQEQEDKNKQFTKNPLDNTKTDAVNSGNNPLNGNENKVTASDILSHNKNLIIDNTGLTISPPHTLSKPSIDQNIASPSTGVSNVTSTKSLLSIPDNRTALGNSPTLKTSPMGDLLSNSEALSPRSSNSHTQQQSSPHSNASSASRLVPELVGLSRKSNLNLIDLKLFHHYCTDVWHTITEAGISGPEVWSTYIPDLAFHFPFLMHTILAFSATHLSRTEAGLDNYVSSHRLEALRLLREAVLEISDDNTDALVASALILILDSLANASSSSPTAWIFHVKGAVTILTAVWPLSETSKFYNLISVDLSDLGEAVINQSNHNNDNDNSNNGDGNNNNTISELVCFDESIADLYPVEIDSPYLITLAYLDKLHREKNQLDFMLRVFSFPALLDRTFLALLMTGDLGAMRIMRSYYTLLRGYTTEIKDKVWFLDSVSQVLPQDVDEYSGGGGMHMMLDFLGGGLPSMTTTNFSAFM
# Test: PBM E-score (8-mer binding enrichment) (E-score (-0.5 to 0.5)); higher = stronger / more preferred TF binding; most listed sequences are background and not binding sites
# Details: protein concentration: 200 nM; construct: GST-full length
# Summary of the method: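 For each ungapped eight-base word taken together with its reverse complement, the Universal PBM Analysis Suite assigned an E-score. Binding data came from GST-tagged yeast transcription factors, applied at about 100-200 nM, on universal all-10-mer Agilent arrays made double-stranded by primer extension. Fluorescent anti-GST marked bound protein, and scans were normalised with masliner.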
row,Sequence,PBM E-score
1,AACATAGT,0.0473
2,ATAGCTCA,-0.149
3,ATCCTGTC,0.168
4,TCAGACGA,0.169
5,AAAAAGAC,-0.218
6,AGCTGATA,0.0205
7,CTAAGTAC,0.153
8,AAGAGGAC,-0.187
9,CACATCAC,-0.15
10,CGGTGTCC,-0.0125
11,ACTTTTTA,-0.153
12,TGCCCTAA,-0.175
13,AAGATAAC,-0.0598
14,ACGTAGCT,0.202
15,GCAGCGCC,-0.0645
16,ATCGTAAA,0.436
17,GGCGTGTA,-0.148
18,CTGGGTGA,-0.204
19,GCAACGCA,-0.0871
20,CTACGTGC,-0.0502
21,ATTTTATG,0.0774
22,AGACATAA,-0.0391
23,GCAGAAGA,-0.0658
24,CCAGTACG,0.258
25,GTCTTTAA,-0.114

row,Sequence,PBM E-score
1,CCGTATAG,0.465
2,ACATAGCA,-0.131
3,ACTGCTCG,0.12
4,CTATTTAA,-0.0533
5,TAGGAATA,-0.149
6,ATCGCGGG,0.169
7,AGTCTGAG,-0.0593
8,AGTTAAGG,-0.191
9,GCGGGGAA,0.0768
10,AGAAAAAG,-0.24
11,CTGCCAAG,-0.034
12,GAAGGCCC,0.0164
13,CCTTCCCG,-0.043
14,AGTCAGGA,-0.184
15,TCGAGAAA,0.0202
16,AGGGAAGC,-0.105
17,TCCTAGCA,-0.255
18,CCGAATGC,0.0774
19,TTCAAGAA,0.0932
20,GGTTGTAA,-0.127
21,CGGGCCGA,-0.134
22,CGTTTGTC,0.298
23,GATTGCCC,-0.0259
24,CTAACCAC,-0.0169
25,ACTGCTTC,-0.0281

row,Sequence,PBM E-score
1,AGGACTAG,-0.166
2,GATGCACC,-0.0687
3,CACTCTGC,-0.0119
4,CGGGGGCC,-0.00222
5,GGTCGGTA,0.284
6,AGACTGAT,-0.202
7,CGTCAAGC,-0.0738
8,GTCCGTGA,0.0485
9,AATGTTCA,-0.116
10,CAAGAAGG,-0.165
11,GTGGACCA,-0.177
12,CGTCGCGA,0.297
13,ACCTGGCT,-0.059
14,AACATGAC,-0.134
15,GCCATGGA,-0.181
16,GAGTACGA,0.426
17,TCGGCTCA,-0.0533
18,GCAGTATA,0.00098
19,AGTCCATC,0.0216
20,TATCGGAA,0.157
21,GTGCCCTA,-0.147
22,GTCGCTTA,0.37
23,CTAGCGAC,-0.0257
24,AATCCCAG,-0.152
25,CAGACTAC,0.028

row,Sequence,PBM E-score
1,CTTAATTA,-0.14
2,ATAGACTC,-0.0954
3,CAACCTTA,-0.236
4,CAAGCCAA,0.103
5,GAGTAGCA,-0.155
6,ATGTTTGC,-0.171
7,TCGTTCCA,0.475
8,ATTAAAGA,-0.0129
9,ACATCGTA,0.423
10,AGTACTGG,-0.0671
11,ACATACGA,0.466
12,TCCGTGCA,-0.0975
13,GTGATGGA,-0.166
14,TAGTCCAA,-0.157
15,AGGCCTGG,-0.197
16,ACACAGCG,0.159
17,CGTTCCAC,0.405
18,CGCGTCGA,0.06
19,ACAGCACG,0.14
20,AAAGGCAC,-0.164
21,CGGCCTAG,-0.225
22,CTAAAACC,-0.234
23,ACTACTCA,-0.15
24,ACGTACGT,0.245
25,ACCGAGCG,0.292

row,Sequence,PBM E-score
1,ATCATTTC,-0.00419
2,ATACAACG,0.118
3,AGTACAAG,0.0646
4,AACACCAA,-0.0923
5,ACCTTCCG,0.0688
6,AAATGCCC,-0.254
7,ACGATTTG,0.287
8,CTATTAGC,0.0694
9,AACTGGGT,-0.203
10,AATTTTAA,0.0521
11,CTGGCTTA,-0.148
12,GGTTCGCA,0.198
13,GGTAAAGA,-0.00696
14,CTGTACCC,-0.187
15,ATTAAATG,-0.142
16,GCGGTGCA,-0.0592
17,ATAGCCAA,0.106
18,AATGAGTA,0.0998
19,CGTCTGAA,-0.102
20,AATGGCCT,-0.13
21,GGATGGAA,0.0542
22,CACTGGAG,-0.259
23,AGGAGCCT,-0.308
24,ACAGCGTC,-0.0393
25,ATCAGCAG,-0.0742

row,Sequence,PBM E-score
1,CGGACGCC,-0.0374
2,GCTTGGGA,-0.209
3,ACATCCGG,0.0185
4,ACACTCCC,-0.135
5,CATTTTCA,-0.131
6,GGTCCGTA,0.331
7,CAGGAATA,-0.182
8,ATTTAATC,-0.0655
9,TTCCGAAA,0.0364
10,CCAAGTTA,-0.292
11,ATCATAAA,-0.14
12,GGGTCCAA,0.0472
13,GGAATAAA,-0.103
14,CGGACCTA,0.0489
15,TAAGTACA,0.0495
16,ATGTGGGC,-0.206
17,CATTACGC,-0.0121
18,CACAGCTA,-0.046
19,CGATAGGA,0.1
20,ACGGACGG,0.134
21,AATCCCAC,-0.18
22,GCTCCAGA,-0.117
23,CCCCAGCC,-0.0203
24,CGTCGCCC,-0.122
25,CAAGATAC,0.0457

row,Sequence,PBM E-score
1,CAGGTGGG,-0.161
2,ATAAGCAT,0.0258
3,ATGTATAA,0.0604
4,ATGGAAGA,-0.155
5,AAGCGATG,0.205
6,TGGGCCAA,-0.138
7,GAAAACAA,-0.0401
8,GGAGATTA,-0.152
9,CTATCTCC,-0.209
10,AGCCGACA,-0.0971
11,TGAACGCA,0.0733
12,CGGTGATC,-0.0864
13,AATCTTCG,0.197
14,ACGGCTGA,0.00758
15,AATCCTCC,-0.0866
16,CCTTCTTC,-0.107
17,AGCGACAC,0.229
18,AACTGTCG,0.154
19,AAGCGCCG,-0.0555
20,CCAACAAC,0.0154
21,GATCTTGA,-0.0293
22,GGACGAAA,0.108
